Whole data set: some 16,000 sequences, median “Z-score” near -0.37, cut for the highest 2% near 3.2. This is one part of the list.
test system: RBM10 RRM1-ZnF (GST-tagged construct); experiment: RNAcompete 7-mer binding Z-score; higher = stronger binding preference
In short: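 GST-tagged RBM10 constructs (20 pmol) and a designed pool of 241 399 RNAs up to 41 nt (1.5 nmol) were allowed to bind for 30 min at 4°C in 1 ml Hepes pH 7.8 buffer with glutathione Sepharose beads. After four 2-min washes at 4°C, bound RNA was identified by microarray hybridisation. Enrichment was scored per heptamer motif as a one-sided Z-score across the probes containing it.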

Sequence | RNAcompete 7-mer binding Z-score
CUUUCGC | -0.964
UGUCGGA | 0.277
GUCUGUC | -0.496
ACGGCCA | -0.48
UGGAAAC | 1.19
CAAGGGA | 2.42
CCCUUUA | -0.928
CUCUAUU | -0.828
AGUACGG | 1.36
AUCUGUC | -0.785
UGUUCCC | -0.565
CUAGGCA | -0.334
AUUCAGU | -0.49
GAGUUCU | -0.506
AAAGCAG | 0.371
CCAUGAG | -0.383
CCGUUUA | -0.919
GACAGGC | 0.716
GUAAAUU | -0.0674
AUAGACA | -0.103
UCACCCU | -0.613
GAGCUUA | -0.37
AUGGUAC | 0.872
UUAGAGU | 0.225

Sequence | RNAcompete 7-mer binding Z-score
UCGCGGC | -0.204
AAAUCGG | 0.355
GCACCAG | -0.223
ACAACAU | -0.357
CCAUAGU | -0.772
CUAAAUU | -0.649
UGAUUAU | -0.321
UUUUUGG | 0.433
GAAGGCC | 0.118
CAAUGGC | -0.158
AGACUCC | -0.753
CUAUAGC | -0.659
AGCCGAC | -0.425
AUGGAGG | 4.22
UCAUGGC | -0.314
GCUAUCA | -0.412
GGGAGUG | 3.73
GCUAAGC | -0.526
CAUUCAA | -0.62
GAAGUAU | 0.173
AGCGUUA | -0.0934
ACAAGAU | -0.441
CCGCAAU | -0.727
UAAGUUG | 0.329

Sequence | RNAcompete 7-mer binding Z-score
AGACAGC | -0.545
ACUCAUA | -0.854
AGGACAU | 0.43
UCGUCGU | -0.314
GGCCUAG | -0.266
CAAUCCC | -0.623
GUACUGG | 0.547
ACUGGAA | 0.813
GGGAACC | 1.62
ACCGGGA | 1.19
UGAGAGU | 0.43
CAGAUCG | -0.188
ACGUCGG | 0.0398
ACGCCGU | -0.47
GUAGAGG | 3.56
GUCAUCA | -0.6
GCCAUAA | -0.756
GGGAUCU | 0.816
ACUACCG | -0.649
GUUGCAA | -0.0382
GGAAUCC | 0.0333
AAAGGCU | 0.807
GCGUAGG | 1.78
AUUCCCG | -0.912

Sequence | RNAcompete 7-mer binding Z-score
AUGCAGA | 0.16
CCAGGUA | 0.348
AGCUAUA | -0.35
AGACGGC | -0.35
UUAUUUC | -0.737
CUUACCA | -0.704
GGUACGA | 1.06
CCGCAAA | -0.733
GGACCCC | -0.0252
GCAGUCU | -0.539
AUUUCGC | -0.919
GGCAAGA | 0.852
ACCGCGA | -0.694
UUCCAAU | -0.792
UCAAAGC | -0.552
GAUCAGC | -0.155
UUACAGC | -0.61
CGGGCUU | 0.677
AAGGCAC | 0.927
GGCGGUG | 1.94
GAUAACG | 0.186
UACUCGU | -0.61
AAUCUGU | -0.789
UAUCUCC | -0.837

Sequence | RNAcompete 7-mer binding Z-score
ACGAGAA | 0.163
ACCCCGG | -0.119
AAGGAAA | 3.36
GAGGGAU | 3.16
CAAGGAC | 0.543
UGUCCCG | -0.496
CCUCAGU | -0.743
GUUCGCG | -0.262
AUUCUGG | -0.295
UCCGGGC | -0.168
ACGCUCA | -0.591
GUGUAGG | 2.81
AUUACGA | -0.392
UGGUCCG | -0.0934
AAGGAGU | 3.09
GUUUACU | -0.503
GGUACAU | 0.787
GAACUGC | -0.396
AACGAUA | -0.327
GCUGCUG | -0.00571
UGCCGAU | -0.668
CUCGUUG | -0.493
UGUAAUA | -0.331
AGUCGAA | -0.0934

Sequence | RNAcompete 7-mer binding Z-score
AUUGCAG | 0.03
GCGCCGG | -0.149
GGUUUCU | 0.192
AUCAGCU | -0.672
AGUGUUU | 0.241
CAAACUC | -0.792
AAACAAG | 0.199
CCCGUGA | -0.409
CGAUCCA | -0.789
CGCCGUA | -0.558
AGUAGAG | 1.38
UACGCUA | -0.412
GAGGCAC | 0.628
UCUGCAG | -0.629
CAGUUCG | -0.626
AAUGUCA | -0.295
AGAAAAG | 1.05
GCAGACG | 0.657
CUCCCCA | -0.435
AAGUCAC | -0.47
GGAAUAU | 1.16
GGUGUUC | 0.534
UCGCAGC | -0.386
ACCGCCC | -0.701

Sequence | RNAcompete 7-mer binding Z-score
AGCAGCU | -0.457
ACUGAUU | -0.428
GUAUGCA | 0.472
GCAAGUU | -0.116
GAAGUGG | 3.46
UCAGUUA | -0.464
AUGCGGU | 0.933
GCAUAAA | -0.376
UCCGAAU | -0.821
CGGUUCA | -0.383
UCUGGAC | -0.487
AGAUAAA | 0.0463
GUUAGGA | 2.13
GGUUGGC | 2.12
CAGGAUA | 1.22
AGAAUGC | -0.292
GCAACCA | -0.266
GGCAUGC | 0.173
GCCAUGA | -0.451
AUACUAU | -0.655
GGAAGGC | 2.63
CUAGAGA | -0.139
GUAUGAG | 1.13
GACUUCG | -0.5

Sequence | RNAcompete 7-mer binding Z-score
UAACUUG | -0.578
AACAGCC | -0.766
AAAACGA | -0.21
GGCUAUC | -0.422
UGUCAUG | -0.142
GGGCGUA | 2.07
ACGGGGA | 3.04
UUCUUAU | -0.769
GAUGGAU | 2.6
AUGGGCG | 2.86
UGGUAGU | 0.949
CCGUCGU | -0.451
CACCUCG | -0.366
GCGCAUU | -0.552
AAGCGCC | -0.435
UGGAUGG | 4.14
GUUUAAG | 0.446
CGUCCGU | -0.591
CACGGGU | 1.99
GUAGGAA | 2.14
CUGCCCA | -0.477
AGACUAG | -0.0414
UAUAAUC | -0.633
CCAUGCU | -0.909

Sequence | RNAcompete 7-mer binding Z-score
GAUAAGG | 3.91
GACAGGU | 2.19
AGAACAG | 0.277
GUGAUUG | 0.875
UAUGCAG | 0.202
AGUGGAG | 3.09
UCUAUGA | -0.568
UUAGCUA | -0.435
ACGGAGC | 1.1
UGUGCUA | -0.188
CCAUUUU | -1.03
AGCUUCA | -0.668
UGUGUAU | 0.0658
GCGCCAG | 0.394
UGGGUAA | 2.97
AAACAGG | 1.68
AUCUGAG | -0.581
AAAUCCG | -0.828
AGGUCCU | -0.513
CCAUGGC | -0.62
GCCGGCG | -0.35
AUUGCUU | -0.766
AGUUCGC | -0.649
AACUUUG | -0.727

Sequence | RNAcompete 7-mer binding Z-score
GGGUCCG | 1.56
UGCAGAU | -0.113
GCGCCCG | -0.366
UGCACUC | -0.548
AUACACG | -0.435
GCAGUGC | -0.201
AUUGUAG | 0.368
GAAACGG | 2.26
GCGGGUC | 1.93
ACCAACU | -0.639
AUUAAUU | -0.646
UGAGCCA | -0.474
GUGCUAG | 0.54
UGUCUCA | -0.642
UUAGGAC | 0.647
UCGUGGG | 2.53
CAGCUGA | -0.308
GUCGUGG | 1.38

Source: the supplement of paper PMC5499739
